Measurements taken from PubChem BioAssay AID485294 (National Center for Advancing Translational Sciences (NCATS), 2010).
About 150 (0.041%) of roughly 370,000 compounds were called active. The shares of active, inactive and inconclusive entries below differ from those in the screen. Calls follow the shape of the dose curve; as a rule, active = well fitted inhibition curve with a large enough effect; inconclusive = small, poorly fitted or top-dose-only effect; inactive = flat fitted curve, though single readings scatter. Potencies of inconclusive entries are left out as doubtful fits.
Also: nearly all actives have a fitted effect of over 25% in size.
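For activity change, negative = inhibition in this document: 0% = no-compound wells and -100% = no-enzyme wells.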
Potency is read from the fitted curve at half-maximal effect; tags tell the direction and shape of the fitted curve.

Each molecule was assayed against Beta-lactamase (Escherichia coli (strain K12)) (UniProt P00811) (assay: qHTS Inhibitors of AmpC Beta-Lactamase (assay with detergent)). Conditions: AmpC hydrolysis of nitrocefin, absorbance 480 nm, 0.01% Triton; activity change, negative = inhibition: at 114 µM (top of the series).
Chain of UniProt P00811 (P00811 whole entry, looked up): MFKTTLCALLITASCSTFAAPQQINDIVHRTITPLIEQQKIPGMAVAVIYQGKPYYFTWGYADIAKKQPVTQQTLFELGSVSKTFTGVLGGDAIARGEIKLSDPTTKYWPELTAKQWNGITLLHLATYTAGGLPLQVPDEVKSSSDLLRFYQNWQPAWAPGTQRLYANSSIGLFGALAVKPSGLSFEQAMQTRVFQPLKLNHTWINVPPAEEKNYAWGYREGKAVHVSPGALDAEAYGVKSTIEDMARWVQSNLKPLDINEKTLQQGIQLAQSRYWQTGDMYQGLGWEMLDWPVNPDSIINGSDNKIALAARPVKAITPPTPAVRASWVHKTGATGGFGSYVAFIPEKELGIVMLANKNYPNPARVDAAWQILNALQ
Method in brief: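 20 mM phosphate pH 7.0 + 0.01% (detergent screen) or 0.0001% Triton X-100; 5.3 nM AmpC reagent; cpd preinc 15 min RT; nitrocefin (800 uM stock) to start; A480 q20 s × 4 min; Activity was normalised to no-enzyme and no-compound control wells.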
`Cc1cccc(C(=O)NCC2CCN(C(=O)c3cccc(C)c3)CC2)c1` was tested, and the Potency was inconclusive [inhibitor, full curve, poor fit]. For `Cc1ccc2ccc3cc(C(=O)N4CCN(c5ccccc5)CC4)nc3c2[nH]1`, the “activity change, negative = inhibition” value was inactive: 20.1%. With `CCCOc1ccc(NC(N)=O)cc1OCCC` the Potency was inconclusive [inhibitor, partial curve, poor fit]. With `CC(=O)Nc1ccc(-c2nnc(SCC(=O)c3ccc([N+](=O)[O-])cc3)o2)cc1` the “activity change, negative = inhibition” value was inactive: 0.667%. With `Cc1ccc(NC(=O)CCn2c(=O)[nH]c3ccsc3c2=O)cc1F` the Potency was inconclusive [inhibitor, full curve]. `Nc1nccnc1C(=O)OCC(=O)NCCc1ccc(S(N)(=O)=O)cc1` was tested, and the Potency was inconclusive [inhibitor, partial curve, poor fit]. For `O=C(Nc1ccc(Br)c2cccnc12)c1ccc(Cn2cc(Cl)cn2)o1`, the Potency was inconclusive [inhibitor, full curve]. In the case of `CCCS(=O)(=O)N1CCCC(C(=O)NC2CCCC(C)C2C)C1` (configuration not stated), the Potency was inconclusive [inhibitor, partial curve, poor fit]. `Cc1ccc(Cc2nnc(SCC(=O)Nc3ccccc3C)[nH]c2=O)cc1` was tested, and the Potency was inconclusive [inhibitor, partial curve]. `C/C(CC(=O)Nc1ccccn1)=N\NC(=O)C(=O)Nc1cccc(C)c1` was tested, and the “activity change, negative = inhibition” value was inactive: 2.88%. With `CCNC(=S)NCCN1CCOCC1` the Potency was inconclusive [inhibitor, partial curve, poor fit]. For `CCOc1cccc(C(=O)Nc2ccc(NC(=O)c3cc4ccccc4o3)c(OC)c2)c1`, the Potency was inconclusive [inhibitor, full curve, poor fit]. In the case of `COc1cccc(-c2cc(C(F)(F)F)nc(-n3cccn3)n2)c1`, the Potency was inconclusive [inhibitor, partial curve]. In the case of `COc1ccc(-c2cc(C(F)(F)F)n3nc(C(=O)NCC45CC6CC(CC(C6)C4)C5)cc3n2)cc1OC`, the Potency was inconclusive [inhibitor, full curve, poor fit]. With `COc1ccc2c(c1)CCc1cc(C(=O)N3CCN(c4ccc(N5CCOCC5)nn4)CC3)sc1-2` the Potency was inconclusive [inhibitor, full curve]. With `COc1cc(N2CCCC2)c(OC)cc1/C=C(/C#N)c1cccc(F)c1` the “activity change, negative = inhibition” value was inactive: -12.8%. `O=C(c1cc2nc(-c3ccc(Cl)cc3)cc(C(F)(F)F)n2n1)N1CCOCC1` was tested, and the “activity change, negative = inhibition” value was inactive: -2.99%. `Cc1c(Cl)cccc1NC(=O)CN1C(=O)CSc2ncccc21` was tested, and the Potency was inconclusive [inhibitor, partial curve, poor fit]. With `Cc1ccc(-n2cc(CN3CCC(O)(c4ccccn4)CC3)c(-c3ccc(F)cc3)n2)cc1` the “activity change, negative = inhibition” value was inactive: -0.239%. For `O=C(NCCCN1CCCCC1)C1(S(=O)(=O)c2ccc(Cl)cc2)CC1`, the Potency was inconclusive [inhibitor, partial curve, poor fit]. For `Cc1cccc(OCC(=O)Nc2nnc(-c3ccco3)s2)c1`, the Potency was inconclusive [inhibitor, full curve, poor fit]. In the case of `CCn1c(SCC(=O)Nc2nccs2)nnc1-c1ccc(S(=O)(=O)N2CCCCCC2)cc1`, the Potency was inconclusive [inhibitor, single point]. `COc1ccc(C(=O)NCc2csc(C(C)C)n2)cc1OC1CCN(C(C)=O)CC1` was tested, and the “activity change, negative = inhibition” value was inactive: 3.35%. With `COCc1cc(=O)n2[nH]c(C(F)(F)F)nc2n1` the Potency was inconclusive [inhibitor, full curve, poor fit]. With `COc1ccccc1Nc1nnc(SCC(=O)NC2CC2)s1` the “activity change, negative = inhibition” value was inactive: -2.37%. For `COCCOC(=O)c1cc(C(=O)c2cc(Cl)ccc2O)coc1=N`, the “activity change, negative = inhibition” value was inactive: 3.94%. In the case of `O=C(Cc1ccccc1)Nc1ccccc1C(=O)O`, the “activity change, negative = inhibition” value was inactive: 0.45%. `O=C(NNc1c2ccccc2nc2ccccc12)c1ccc(O)cc1` was tested, and the Potency was inconclusive [inhibitor, partial curve]. `Cc1ccccc1NS(=O)(=O)c1cccc2nsnc12` was tested, and the “activity change, negative = inhibition” value was inactive: -3.34%. `CCC(CC)C(=O)Nc1cc(C(=O)NCCc2ccccc2)ccc1Cl` was tested, and the Potency was inconclusive [inhibitor, full curve]. With `Cc1ccc(-c2nn(-c3ccccc3)cc2/C=N/NS(=O)(=O)c2ccccc2)cc1` the Potency was inconclusive [inhibitor, full curve, poor fit]. In the case of `Cc1ccc(N2C(=O)NC(NC(=O)C(C)(C)C)(C(F)(F)F)C2=O)cc1C` (configuration not stated), the Potency was inconclusive [inhibitor, full curve, poor fit]. In the case of `O=C(NCCS(=O)(=O)N1CCC2(CC1)OCCO2)c1ccccc1`, the Potency was inconclusive [inhibitor, partial curve, poor fit]. For `Cc1ccc(NC(=O)N2CCCC2C(=O)NCCc2ccccc2)cc1` (configuration not stated), the Potency was inconclusive [inhibitor, full curve, poor fit]. In the case of `COc1ccc(OC)c(S(=O)(=O)N2CC=C(c3c(C)n(CC(=O)N4CCCC4)c4ccccc34)CC2)c1`, the Potency was inconclusive [inhibitor, single point]. In the case of `CC[C@H]1C2C[C@H]3[C@@H]4N(C)c5ccccc5C45C[C@H](C2[C@H]5O)N3[C@@H]1O` (some centres not stated), the Potency was inconclusive [inhibitor, full curve, poor fit]. For `O=C(c1ccco1)N1CCN(S(=O)(=O)c2cccc(Cl)c2)CC1`, the Potency was inconclusive [inhibitor, partial curve, poor fit]. With `C=C[C@@H]1c2ccccc2N(S(=O)(=O)c2ccc(C)cc2)[C@H](c2ccc(OC(C)=O)cc2)C1(C#N)C#N` the “activity change, negative = inhibition” value was inactive: 6.7%. With `COCCNc1nc2c(c(=O)n(C)c(=O)n2C)n1Cc1cccc(C)c1` the Potency was inconclusive [inhibitor, partial curve, poor fit]. For `CCOC(=O)c1c(NC(=O)c2cc(=O)c3ccc(C)cc3o2)sc(C)c1C`, the “activity change, negative = inhibition” value was inactive: -0.0955%. `OCc1ccccc1N=Cc1cccnc1` was tested, and the Potency was inconclusive [inhibitor, full curve]. `CN(Cc1ccccc1)c1nc2c(c(=O)n(C)c(=O)n2C)n1CCSc1ncccn1` was tested, and the Potency was inconclusive [inhibitor, full curve]. For `COc1cc(/C=C2\SC(=S)N(Nc3ncc(C(F)(F)F)cc3Cl)C2=O)cc(OC)c1OC`, the Potency was inconclusive [inhibitor, single point]. With `COc1cc(C(=O)N(C)C2CCCN(Cc3ccccc3F)C2)cc(OC)c1OC` (configuration not stated) the Potency was inconclusive [inhibitor, partial curve, poor fit]. For `CC(NC(=S)NC1CCCCC1)c1ccccc1` (configuration not stated), the “activity change, negative = inhibition” value was inactive: -12.9%. For `CC1CC(=O)N(c2ccc(C(C)C)cc2)C(=O)C1`, the Potency was inconclusive [inhibitor, single point]. For `CN(C)S(=O)(=O)N1CCC(Oc2ccc(C(=O)NC3Cc4ccccc4C3)cc2)CC1`, the “activity change, negative = inhibition” value was inactive: -11.3%. For `COc1cc(OC)cc(C(=O)N2CCN(S(C)(=O)=O)CC2)c1`, the Potency was inconclusive [inhibitor, full curve, poor fit]. For `CC(=O)N1CCc2cc(Br)cc(S(=O)(=O)N3CCN(c4cccc(C)c4)C(C)C3)c21` (configuration not stated), the Potency was inconclusive [inhibitor, single point]. With `CCCCCC1CCC(c2n[nH]c(=S)n2C)CC1` (configuration not stated) the Potency was inconclusive [inhibitor, partial curve, poor fit]. With `Cc1cccc(NC(=O)CSc2nnc(-c3ccncc3)n2C)c1` the “activity change, negative = inhibition” value was inactive: -11.5%. In the case of `C=C(C)COc1ccc(-c2nc(N)ncc2-c2ccc(Br)cc2)c(O)c1`, the Potency was inconclusive [inhibitor, full curve, poor fit]. With `COc1ccc(N2CCN(C(=O)CS(=O)(=O)c3cccc4nsnc34)CC2)cc1` the “activity change, negative = inhibition” value was inactive: -6.73%. `Cc1ccc(N2C(=O)c3ccc(C(=O)N4CCOCC4)cc3C2=O)cc1C` was tested, and the Potency was inconclusive [inhibitor, full curve]. `N#C/C(=C\c1c(Oc2ccc(Br)cc2)nc2ccccn2c1=O)c1nc2ccccc2s1` was tested, and the “activity change, negative = inhibition” value was inactive: 0.295%. `CS(=O)(=O)N(Cc1ccc(Cl)cc1)c1ccc(C(=O)Nc2cccnc2)cc1` was tested, and the Potency was inconclusive [inhibitor, full curve, poor fit]. With `CC(C)CCNC(=O)c1ccc2c(c1)N(Cc1ccccc1)C(=O)CS2=O` (configuration not stated) the Potency was inconclusive [inhibitor, full curve, poor fit]. `O=C(NC1=NCCS1)c1nc(-c2ccccc2)n(-c2ccccc2)n1` was tested, and the Potency was inconclusive [inhibitor, partial curve, poor fit]. In the case of `Cn1cnc2c(N/N=C/c3cccs3)ncnc21`, the Potency was inconclusive [inhibitor, partial curve]. With `COc1cccc(C2=NOC(C(=O)N3CCN(c4ccccc4)CC3)C2)c1OC` (configuration not stated) the Potency was inconclusive [inhibitor, full curve, poor fit]. In the case of `COc1ccc(C(=O)NCCSc2ccccn2)cc1`, the Potency was inconclusive [inhibitor, full curve]. With `COc1ccc(OC)c(-c2cc(C(=O)N3CCc4ccccc4C3)no2)c1` the Potency was inconclusive [inhibitor, partial curve]. In the case of `Cc1ccc(C2C(C#N)=C(N)Oc3c2oc(CO)cc3=O)o1` (configuration not stated), the Potency was inconclusive [inhibitor, partial curve, poor fit]. In the case of `O=C(/C(=C/O)N=Nc1ccccc1)c1ccncc1`, the “activity change, negative = inhibition” value was inactive: -0.941%. `CCS(=O)(=O)NCCNc1ccc([N+](=O)[O-])cc1` was tested, and the “activity change, negative = inhibition” value was inactive: -0.744%. For `Cc1c(C(c2ccccc2O)c2c(C)n(C)n(-c3ccccc3)c2=O)c(=O)n(-c2ccccc2)n1C`, the “activity change, negative = inhibition” value was inactive: 2.3%. For `Oc1ccccc1C1NCc2ccccc2-n2cccc21` (configuration not stated), the “activity change, negative = inhibition” value was inactive: -4.5%.
